In PubChem BioAssay AID463173 (ICCB-Longwood Screening Facility, Harvard Medical School, 2010):
In all, about 52,000 compounds went through this assay and about 4,300 (8.3%) were called active. No stated cut-off is given here; in the data, active means survival mostly below about 52% (no sharp cut-off); inactive means mostly above about 56%. Some of the results follow.

Each compound was assayed on DeltatarO mutant (assay: S. aureus survival, RN4220 and DeltatarO strains – OD600, teichoic acid synthesis inhibitors, primary screen (AID 463173)). Settings: S. aureus RN4220 wild type/DeltatarO growth, OD600, 18 h, active compounds read low, screened at 18.75 µg/mL (by protocol).

Row | Compound | survival
1 | Cc1cc(C)c(Cn2c3ccccc3c3cnn(CC(=O)NCc4cccs4)c(=O)c32)c(C)c1 | inactive: 72%
2 | CN(C)S(=O)(=O)N1CCNCC1 | inactive: 90%
3 | CC(C)c1nn2c(=O)cc(COC(=O)c3ccc(NC(=O)COc4ccccc4)cc3)nc2s1 | inactive: 98%
4 | COc1ccccc1C(=O)Nc1ccccc1OCc1cc(=O)n2c(C)csc2n1 | inactive: 60%
5 | CCc1ccc(-n2c(=O)c3c4c(sc3n(CC(=O)c3ccc(F)cc3)c2=O)CCC4)cc1 | inactive: 81%
6 | CCC(C)NC(=O)CCCN1C(=O)CCn2nc(-c3cccn3C)cc21 (stereo unspecified) | inactive: 85%
7 | COc1ccc(-c2ccc3c(N)c(C(=O)c4ccc(OC)c(OC)c4)sc3n2)cc1 | inactive: 52%
8 | CCc1cccc(NC(=O)COC(=O)c2cn(CC)c3nc(C)ccc3c2=O)c1 | inactive: 87%
9 | CCCc1cc(=O)[nH]c(SCC(=O)N2CCN(c3ccccc3)CC2)n1 | inactive: 99%
10 | COc1ccc(CNC(=O)CSCc2nc(-c3ccccc3C)oc2C)cc1 | inactive: 55%
11 | COc1ccc(CNC(=O)c2ccc(-c3nc(CSc4ccccc4)c(C)o3)cc2)cc1OC | inactive: 78%
12 | COc1cccc(N2CCN(C(=O)c3ccc(C)c(NC(=O)c4nsc5ccccc45)c3)CC2)c1 | inactive: 96%
13 | Cc1ccc(N(CC(=O)NCCc2ccc(Cl)cc2)S(=O)(=O)c2c(C)noc2C)cc1 | inactive: 87%
14 | Cc1ccc(C(c2sc3nc(-c4ccco4)nn3c2O)N2CCCC2)cc1 (stereo unspecified) | inactive: 73%
15 | Cc1cccc(NC(=O)Cn2nnc(-c3nc(-c4ccncc4)no3)c2N)c1 | inactive: 85%
16 | COc1ccc(CN2CCc3c(c(=O)n4ncc(C(=O)N5CCN(c6ccccc6OC)CC5)c4n3C)C2)cc1 | inactive: 89%
17 | Cc1ccc(NC(=O)CN2C(=O)c3ccccc3Sc3ccc(C(=O)N4CCOCC4)cc32)cc1F | inactive: 88%
18 | CCN(CC)Cc1c(C(C)(C)C)oc(C)c1C(=O)O | inactive: 81%
19 | COc1ccc(NC(=O)CN2C(=O)CCn3nc(-c4cccn4C)cc32)cc1Cl | inactive: 83%

Row | Compound | survival
20 | O=S(=O)(c1ccc(-c2cc(C(F)(F)F)on2)s1)N1CCN(c2ccccc2F)CC1 | inactive: 66%
21 | [O-][n+]1onc(-c2ccccc2)c1-c1ccccc1 | inactive: 88%
22 | COC(=O)c1ccccc1NC(=O)c1cc(-c2ccccc2O)no1 | inactive: 92%
23 | CC(=O)Nc1nonc1-c1nnc(SCC(=O)Nc2ccc(C)cc2)n1-c1ccccc1 | inactive: 53%
24 | CCCN1CCN(c2ncnc3sc(C(=O)Nc4ccc(C(C)C)cc4)c(C)c23)CC1 | inactive: 73%
25 | CCOC(=O)c1sc2cccc(F)c2c1S(=O)(=O)NCc1ccccc1Cl | inactive: 124%
26 | O=C(CS(=O)(=O)c1cccc2nsnc12)N1CCN(c2cccc(Cl)c2)CC1 | inactive: 100%
27 | COc1ccc(-c2cc(-c3ccccc3)c(C#N)c(SCC(O)CS(=O)(=O)Cc3ccc(Cl)cc3)n2)cc1 (stereo unspecified) | inactive: 152%
28 | Cc1cc(C)c(Nc2nc3ccccc3n3c(C)nnc23)c(C)c1 | inactive: 76%
29 | O=C1CNC(=O)c2c(nc3n2CCC3)N1 | inactive: 101%
30 | COc1ccccc1OCCn1c(NC(=O)c2ccccc2Cl)nc2ccccc21 | active: -3%
31 | Cc1ccc(NC(=O)C(=O)NCC(c2cccnc2)N2CCN(Cc3ccccc3)CC2)cc1C (stereo unspecified) | inactive: 80%
32 | CCOc1ccc(Nc2oc(-c3ccc(COc4ccc(OC)cc4)o3)nc2C#N)cc1 | inactive: 70%
33 | CCOC(=O)C1CCN(c2cc3c(cc2NC(=O)c2ccc(Cl)cc2)n(C)c(=O)n3C)CC1 | inactive: 93%
34 | COc1ccc(S(=O)(=O)NCc2ccc3c(c2)CCN3C(=O)c2ccccc2)cc1OC | inactive: 73%
35 | COC(=O)c1ccc(Cl)cc1NC(=O)N1CC2CCCN2c2ccccc21 (stereo unspecified) | inactive: 71%
36 | COc1ccc(NC(=O)CN2C(=O)CCn3nc(-c4cccn4C)cc32)cc1 | inactive: 81%
37 | CCOc1ccc2nc(SCC(=O)NCC3CCCO3)c(C#N)cc2c1 (stereo unspecified) | inactive: 85%
38 | O=C1c2cccc3c(N4CCOCC4)ccc(c23)C(=O)N1c1ccccc1 | inactive: 98%

Row | Compound | survival
39 | Cc1ccc(NC(=O)C(Cc2c[nH]c3ccccc23)NC(=O)OC(C)(C)C)c(C)c1 (stereo unspecified) | active: 27%
40 | Cc1cc(C)cc(NC(=O)NCCc2c(C)nn(C)c2C)c1 | inactive: 64%
41 | Cc1cc2c(cc1S(=O)(=O)CCC(=O)N1CCC(C)CC1)OCC(=O)N2 | inactive: 102%
42 | CCc1ccc(C(=O)c2cn(CC(=O)Nc3ccc4c(c3)OCO4)c3ccc(CC)cc3c2=O)cc1 | inactive: 75%
43 | CCN(CC)C(=O)Cn1c(=O)cc(C)c2c(C)nn(-c3cccc(Cl)c3C)c21 | inactive: 87%
44 | COc1cccc(CNC(=O)C2CCC(CNS(=O)(=O)c3ccc4c(c3)CCCC(=O)N4)CC2)c1 (stereo unspecified) | inactive: 94%
45 | Cc1ccc(NC(=O)CSc2nnc3scc(-c4ccc(Cl)cc4)n23)cc1 | inactive: 49%
46 | CCN(CC)CCCNc1oc(/C=C/c2ccc(OC)c(OC)c2)nc1C#N | inactive: 71%
47 | COc1ccc(NC(=O)Cn2cc(S(=O)(=O)N3CCN(c4ccccc4F)CC3)c3ccccc3c2=O)cc1Cl | inactive: 85%
48 | CCC(=O)n1c2c(c3ccccc31)Nc1ccccc1N2 | inactive: 82%
49 | Cc1ccc(Nc2nc3nonc3nc2Nc2cccc(C(F)(F)F)c2)cc1Cl | active: -1%
50 | CCOC(=O)C1=C(CN2CCN(c3ccc(OC)cc3)CC2)NC(=O)NC1c1ccc(OC)cc1 (stereo unspecified) | inactive: 119%
51 | CNc1c(NC(=O)c2ccc(OC)c(OC)c2)c(=O)oc2ccccc12 | inactive: 92%
52 | CCOc1ccc(-c2cc(C(=O)N3CCN(c4cc(Cl)ccc4C)CC3)c3ccccc3n2)cc1 | inactive: 58%
53 | COc1ccc(C)cc1NC(=O)c1noc2c1CSc1ccccc1-2 | inactive: 78%
54 | COc1ccc(C2C(C(=O)Nc3ccccc3)=C(C)Nc3c(C(=O)Nc4ccccc4)cnn32)cc1 (stereo unspecified) | inactive: 126%
55 | Cc1nc(N2CCCC2)c2c(C(=O)N3CCN(c4ccccc4)CC3)c(C)oc2n1 | inactive: 81%
56 | Cc1cc2c(n1-c1ccc(C(=O)NCCc3ccc(Cl)cc3)cc1)CCCC2 | inactive: 124%
